Results published in PubChem BioAssay AID686978 (National Center for Advancing Translational Sciences (NCATS), 2013).
“And” between values parts separate entries of the source, which are not always exact repeats. Identical values can stand only once. Screen size: about 420,000 compounds; about 64,000 (15%) were called active. The inconclusive results got no clear call from the source; some entries with a clear call stand among them for comparison. The call rests on the fitted dose curve; in most records, active means well fitted inhibition curve with a large enough effect; inconclusive means small, poorly fitted or top-dose-only effect; inactive means flat fitted curve, though single readings scatter. Potencies beside an inconclusive call are fits to weak or partial responses and may not hold up.

experiment: qHTS for Inhibitors of human tyrosyl-DNA phosphodiesterase 1 (TDP1): qHTS in cells in absence of CPT; details: DT40 Tdp1-/- hTDP1 cells, no CPT, ATP luminescence, 48 h; activity change, negative = growth inhibition: at 46.2 µM (top of the series) unless noted; further: nearly all actives have a fitted effect of over 55% in size
Procedure, shortened: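 DT40 Tdp1-/-;hTDP1 cells, no CPT (DMSO vehicle only), 400 cells/well; compounds pin-transferred; ≥48 hr, 37 °C; CellTiter-Glo 30 min RT dark, luminescence read.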
On the % scale 0 is the no-effect control and ±100 the full control effect; potency means the concentration at half of the fitted maximal effect; tags describe the fitted curve by direction and shape.

SMILES	Potency	activity change, negative = growth inhibition
Clc1ccc(Nc2ncnc3c2nnn3Cc2ccccc2)cc1	inactive	–
CC(C)(C)c1ccc(C(=O)Nc2ccc(C(=O)OCc3cc(=O)n4ccsc4n3)cc2)cc1	active: 20.6 µM	–
CC(C)=CCC/C(C)=C/C=C/C(C)=C/C=C/C(C)=C/C=C/C=C(C)/C=C/C=C(C)/C=C/C=C(\C)CCC=C(C)C	inconclusive: 23.7 µM [inhibitor, single point]	–
O=C(CCn1nnc2ccccc21)N1CCN(c2ccccc2)CC1	inactive	–
Cc1cc(NC(=O)c2cc(-c3cccnc3)nc3c(C)c(C)ccc23)no1	active: 16.4 µM	–
O=C1OCCC1Sc1nc2ccccc2c(=O)n1Cc1ccc(F)cc1 (configuration not stated)	inactive	–
COc1ccccc1Oc1ccc2c(c1)C(=O)N(CC1CCCO1)C2=O (configuration not stated)	inconclusive: 18.4 µM [inhibitor, single point]	–
CC(=O)C(C(C)=O)C1(O)C(=O)c2ccccc2C1=O	active: 23.1 µM	–
Cc1onc(-c2ccccc2)c1C(=O)Nc1sc2c(c1C(N)=O)CCC2	inconclusive: 25.9 µM [inhibitor, single point]	–
CCOC(=O)C1=C(N)Oc2ccc3ccccc3c2C1c1cccnc1 (configuration not stated)	inconclusive: 35.5 µM [inhibitor, single point]	–
Cc1csc(NC(=O)C(NC(=O)c2ccccc2F)C(C)C)n1 (configuration not stated)	active: 20.6 µM	–
COc1ccccc1NS(=O)(=O)c1ccc(N/N=C/C=C/c2ccccc2[N+](=O)[O-])c([N+](=O)[O-])c1	inconclusive: 0.731 µM [inhibitor, partial curve, poor fit]	–
COc1ccccc1NC(=O)c1ccccc1N(Cc1ccccc1)S(C)(=O)=O	inconclusive: 23.1 µM [inhibitor, partial curve, poor fit]	–
Cc1nc(CSc2nnc3scc(-c4ccc(Cl)cc4)n23)cs1	inconclusive: 29.1 µM [inhibitor, single point]	–
CCOC(=O)C1=C(C)Nc2ncnn2C1c1ccccc1F (configuration not stated)	inconclusive: 29.1 µM [inhibitor, single point]	–
CCOCCn1c(=NC(=O)c2ccc(S(=O)(=O)N3CCOCC3)cc2)sc2cc(S(N)(=O)=O)ccc21	inconclusive: 2.59 µM [inhibitor, single point]	–
CNc1nc(N)c([N+](=O)[O-])c(NC2CCCCC2)n1	inconclusive: 29.1 µM [inhibitor, single point]	–
Cc1cc(C(=O)COC(=O)c2n[nH]c3ccccc23)c(C)n1CC1CCCO1 (configuration not stated)	inconclusive: 29.1 µM [inhibitor, single point]	–
Cc1ccccc1OCc1nnc(SCC(=O)Nc2ccc(N3CCOCC3)c(Cl)c2)n1C	inconclusive: 29.1 µM [inhibitor, single point]	–
CCCCn1c(N)c(N(CCC(C)C)C(=O)CSc2nncn2-c2ccccc2)c(=O)[nH]c1=O	inactive	–
O=C(/C=C/c1ccc(O)c(O)c1)O[C@@H]1C[C@@](OC(=O)/C=C/c2ccc(O)c(O)c2)(C(=O)O)C[C@@H](O)[C@@H]1O	inconclusive: 33.5 µM [inhibitor, single point]	–
O=C(CC1C[C@H](C(=O)N2CCCCC2)[C@@]2(CCc3ccccc3)c3[nH]c4ccccc4c3CCN2C1=O)NCCCn1ccnc1 (some centres not stated)	inconclusive: 16.4 µM [inhibitor, single point]	–
O=C1C=C(c2ccccc2)C[C@H](c2cccs2)[C@H]1n1nnc([N+](=O)[O-])n1	active: 5.8 µM	–

SMILES	Potency	activity change, negative = growth inhibition
COC(=O)c1sc(-c2ccccc2)cc1NC(=O)Nc1ccccc1Cl	inconclusive: 23.1 µM [inhibitor, single point]	–
C=C(C)Cn1c(CCn2c3ccccc3c3ccccc32)n[nH]c1=S	active: 5.8 µM	–
CC(=O)N1CCN(C2=NC(=O)/C(=C/c3ccc(OS(=O)(=O)c4ccccc4)cc3)S2)CC1	inconclusive: 16.4 µM [inhibitor, partial curve, poor fit]	–
CCOC(=O)c1ccc(C(=O)OCC)c(NC(=S)Nc2ccc([N+](=O)[O-])cc2OC)c1	inconclusive: 29.1 µM [inhibitor, single point]	–
COc1cccc(C(=O)Nc2c[nH]c(=O)[nH]c2=O)c1	inactive	–
COCCNC(=O)C(c1ccc(F)cc1)N(Cc1ccccc1)C(=O)CCC(=O)Nc1ccccn1 (configuration not stated)	inactive	–
COc1cc2cnc(C3=CCCCC3)cc2cc1OC	inconclusive: 29.1 µM [inhibitor, single point]	–
O=P(c1ccccc1)(c1ccccc1)C(c1ccco1)N1CCOCC1 (configuration not stated)	inconclusive: 16.4 µM [inhibitor, partial curve]	–
COC(=O)c1ccc(OC)c(CN2CCCN(Cc3ccc(F)cc3)S2(=O)=O)c1	inconclusive: 18.4 µM [inhibitor, single point]	–
Cc1cc2cc3c(cc2nc1SCC(=O)N1CCCC1)OCCO3	inconclusive: 29.1 µM [inhibitor, single point]	–
COc1ccc(-c2cn3c(n2)sc2cc(C(=O)Nc4c(C)cccc4C)ccc23)cc1	active: 9.2 µM	–
CN(CC(=O)NCc1ccco1)CC(=O)Nc1ccc(F)c(F)c1F	inconclusive: 18.4 µM [inhibitor, partial curve, poor fit]	–
CNC(=O)c1ccc2nc(-c3ccco3)c(-c3ccco3)nc2c1	inconclusive: 35.5 µM [inhibitor, single point]	–
Cc1cc(NC(=O)c2ccc(Cl)c([N+](=O)[O-])c2)no1	–	inconclusive: -30.2% [inhibitor]
CCCS(=O)(=O)c1c(S(=O)(=O)CCC)c2cnccn2c1C(=O)c1ccc(CC)cc1	inconclusive: 29.1 µM [inhibitor, single point]	–
CC(C)(C)NC(=O)c1ccc2c(c1)N(CC(=O)N1CCCC1)C(=O)C(C)(C)O2	inactive	–
COc1ccc(NC(=O)Cc2ccc(-c3ccccc3)cc2)cn1	active: 11.6 µM	–
Cc1ccccc1-n1ncc(C(C)NS(=O)(=O)c2sccc2C)c1C (configuration not stated)	inconclusive: 23.1 µM [inhibitor, single point]	–
CCOC(=O)C1CCCN(C(=O)c2cc(S(=O)(=O)N3CCCCC3)ccc2Cl)C1 (configuration not stated)	active: 20.6 µM	–
CCOc1ccccc1N1CCN(C/C=C/c2ccc(N(C)C)cc2)CC1	inconclusive: 29.1 µM [inhibitor, single point]	–
O=S(=O)(c1ccccc1)c1ccc(NCc2ccco2)cc1	inconclusive: 11.6 µM [inhibitor, partial curve]	–
COc1cc(C(=O)OCc2cc(=O)oc3c(C)c(C)ccc23)ccc1OC(F)F	inconclusive: 20.6 µM [inhibitor, single point]	–
O=C(NC1CCN(Cc2ccccc2)CC1)C1CCN(c2nnc(-n3cccc3)s2)CC1	inconclusive: 16.4 µM [inhibitor, single point]	–

SMILES	Potency	activity change, negative = growth inhibition
COCCN(CC(=O)Oc1ccccc1P(=O)(OC)OC)Cc1ccccc1	inactive	–
O=C1/C(=C/c2ccc(N3CCCC3)cc2)NC(=S)N1C1CC1	active: 16.4 µM	–
CCSc1nnc(NC(=O)c2nc(S(=O)(=O)Cc3ccc(F)cc3)ncc2Cl)s1	active: 10.3 µM	–
COc1ccc(/C=C2\SC(=O)N(CCNC(=O)C3CSC4(C)CCC(=O)N34)C2=O)cc1 (configuration not stated)	inconclusive: 18.4 µM [inhibitor, single point]	–
O=C(c1ccc(Cl)cc1)c1c[nH]c(C(=O)C(Cl)(Cl)Cl)c1	active: 11.6 µM	–
CCS(=O)(=O)c1ccc(O)c(NC(=O)COc2ccccc2)c1	–	inconclusive: -10.1% [inhibitor]
Cc1cc(C(=O)Nc2ccccc2)c2ccccc2n1	inactive	–
CCc1ccc(NC(=O)c2cc3c(COC(C)=O)cnc(C)c3oc2=O)cc1	–	inconclusive: -14.8% [inhibitor]
Cn1c(SCC(=O)NCc2ccccc2)ncc(C(=O)Nc2ccccc2)c1=O	inconclusive: 18.4 µM [inhibitor, partial curve]	–
COc1ccc(C(=O)n2nc(-c3ccc(Cl)cc3)nc2NCc2ccco2)cc1	inconclusive: 9.2 µM [inhibitor, partial curve]	–
CCCn1c(/N=C/c2ccccc2O)nc2ccccc21	–	inconclusive: -32.2% [inhibitor]
CN(C)S(=O)(=O)c1ccc(C(=O)Nc2c(C(=O)Nc3ccc(F)cc3)oc3ccccc23)cc1	inconclusive: 4.11 µM [inhibitor, partial curve, poor fit]	–
CCc1nn(C(CC)C(=O)NCC(C)c2ccccc2)c(=O)c2cc3occc3n12 (configuration not stated)	inactive	–
COc1ccc2sc(-c3ccccc3OC)c(-c3ccc(OCCN4CCCC4)cc3)c2c1	inconclusive: 23.1 µM [inhibitor, single point]	–
CCOc1ccc(NC(=O)CSc2ncnc3c2sc2ccccc23)cc1	inactive and inconclusive: 18.4 µM [inhibitor, single point]	–
COc1ccc(OCCn2c(N)nc3ccccc32)cc1	active: 23.1 µM	–
COc1ccc(CNS(=O)(=O)NCc2ccc(OC)c(OC)c2)cc1OC	inconclusive: 32.6 µM [inhibitor, partial curve, poor fit]	–
COc1cccc(-n2c(C)cc(/C=C3\C(=N)N4N=C(CC(=O)N5CCOCC5)SC4=NC3=O)c2C)c1	inactive	–
CC(C)NS(=O)(=O)c1ccc(OCC(=O)N2CCCC2)cc1	inactive	–
CC(=O)Nc1ccc(S(=O)(=O)NNC(=O)c2cccc(Br)c2)cc1	inactive	–
Cc1cc(Cl)ccc1NC(=O)CN1CCC(C(O)(c2ccccc2)c2ccccc2)CC1	inconclusive: 23.1 µM [inhibitor, single point]	–
